Assay results from PubChem BioAssay AID588855 (National Center for Advancing Translational Sciences (NCATS), 2011).
The whole screen tested about 410,000 compounds, of which about 5,000 (1.2%) were called active. This list was built around the results that the source calls inconclusive (neither active nor inactive); the mix of calls is not that of the screen. The call rests on the fitted dose curve; in most records, active means well fitted inhibition curve with a large enough effect; inconclusive means small, poorly fitted or top-dose-only effect; inactive means no such curve, though single readings can be large or run the other way. Where the call is inconclusive, the potency comes from a doubtful curve fit.

Experiment: qHTS for Inhibitors of TGF-b; further: nearly all actives have a fitted effect of over 65% in size
Conditions: HepG2 CAGA-GFP TGF-b/SMAD3 reporter, GFP fluorescence, 18 h, TGF-beta stimulated, 500 pg/mL final; series mostly up to 46.1 µM; activity, negative = inhibition: at the top concentration
Summary of the method: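 Using HEPG2 CAGA-GFP reporter cells at 1000 cells/well, we pinned test compounds, stimulated with recombinant TGF-beta (500 pg/mL final) and measured total well GFP after 18 h.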
On the % scale 0 is the no-effect control and ±100 the full control effect; potency means the concentration at half of the fitted maximal effect; tags describe the fitted curve by direction and shape.

Row | SMILES | activity, negative = inhibition | Potency
1 | CCN(CC(=O)Nc1ccccc1C(F)(F)F)C(=O)c1cccc(N2C(=O)CCC2=O)c1 | inactive: -29.7% | 
2 | COC(=O)c1ccc(COC(=O)C2CC(O)CN2S(=O)(=O)c2ccc([N+](=O)[O-])cc2)cc1 (stereo not given) |  | inconclusive: 35.5 µM [inhibitor, single point]
3 | C/C(=N\NC(=O)c1cc(C)nc2ccccc12)c1ccccn1 |  | active: 3.98 µM
4 | CCCCCCN=CC1=C(O)C(C(=O)OC)C(C)(C)CC1=O (stereo not given) |  | inconclusive: 0.501 µM [inhibitor, partial curve, poor fit]
5 | CN(C)c1nc(=NCc2cccs2)ss1 |  | inconclusive: 0.631 µM [inhibitor, full curve, poor fit]
6 | CC(C)=N/N=C1/NC(=O)C(c2ccc(Cl)cc2)S1 (stereo not given) |  | inconclusive: 14.1 µM [inhibitor, partial curve, poor fit]
7 | Cc1noc(NS(=O)(=O)c2ccc(N/C=C\C(=O)c3cccc4ccccc34)cc2)c1C | inactive: -10.3% | 
8 | Cc1ccc(NC(=O)CN(C)C(=O)CSc2nc(C)cc(C)n2)cc1 |  | inconclusive: 35.5 µM [inhibitor, single point]
9 | O=C(CN(C(=O)CNC(=O)c1ccco1)c1ccc(F)cc1)NC1CCCC1 | inactive: -1.37% | 
10 | COc1ccc(S(=O)(=O)N(C)C)cc1NC(=O)COC(=O)c1nn(C)c(=O)c2ccccc12 |  | inconclusive: 3.16 µM [inhibitor, single point]
11 | C=CCC[C@H](Cc1ccc(F)cc1)C(=O)OC[C@@H](Cc1c[nH]c2ccccc12)NC(=O)[C@H](CC=C)CC(=O)NCCO |  | inconclusive: 17.8 µM [inhibitor, single point]
12 | COC(=O)Cc1c(C)c2ccc(O)c(CN3CCCC(C)C3)c2oc1=O (stereo not given) | inactive: 3.54% | 
13 | CCc1ccc(CN(C)C(=O)c2cc(COc3ccc(OC)cc3Cl)on2)nc1 |  | inconclusive: 35.5 µM [inhibitor, single point]
14 | Cc1cccc(N(C)C(=O)C(Cc2ccccc2)NS(=O)(=O)c2cccc3nsnc23)c1 (stereo not given) | inactive: -21.1% | 
15 | CCOCCCN1CN(Cc2ccccc2)CNC1=S | inactive: -22.7% | 
16 | O=C(CCC1CCCN(C(=O)c2ccc3c(c2)OCCO3)C1)NCc1ccccc1F (stereo not given) | inactive: -11% | 
17 | Cn1c(CSCc2ccc(Cl)c(Cl)c2)nnc1SCC(=O)Nc1nccs1 |  | inconclusive: 1.41 µM [inhibitor, single point]
18 | COC(=O)[C@@H](NC(=O)Nc1ccc2c(c1)OCCO2)C(C)C |  | inconclusive: 1.12 µM [inhibitor, full curve, poor fit]

Row | SMILES | activity, negative = inhibition | Potency
19 | COc1cc(/C=C2\SC(=S)N(CCC(=O)N3CCN(C)CC3)C2=O)cc(OC)c1OC | inactive: -12.3% | 
20 | Cc1ccc(NC(=O)CC2C(=O)N(Cc3ccccc3)C(=S)N2NC(=O)c2cccc(F)c2)c(C)c1 (stereo not given) |  | inconclusive: 22.4 µM [inhibitor, single point]
21 | Cc1ccc(O)c(-c2cc(-c3cccc(Br)c3)n[nH]2)c1 |  | inconclusive: 35.5 µM [inhibitor, partial curve, poor fit]
22 | CCOC(=O)c1cc(S(=O)(=O)Nc2cccc(OC)c2)cn1C | inactive: -22.3% | 
23 | COc1ccc(C2=NNC(=O)C2(C)Br)cc1 (stereo not given) | inactive: 2.6% | 
24 | Oc1ccc(Cl)cc1-c1cc(-c2ccccc2)n[nH]1 |  | inconclusive: 35.5 µM [inhibitor, single point]
25 | CCOc1cc(/C=N\NC(=O)Cc2ccccc2)ccc1OCC(=O)Nc1ccc(C)c(C)c1 |  | inconclusive: 17.8 µM [inhibitor, single point]
26 | COC(=O)CCCCCN1C(=O)/C(=C\c2ccncc2)SC1=S |  | inconclusive: 35.5 µM [inhibitor, single point]
27 | C=CCN(c1cccc(C(F)(F)F)c1)S(=O)(=O)c1cccc(C(=O)OCC(=O)Nc2ccccc2)c1 | inactive: -3.74% | 
28 | COc1ccc(NC(=O)C(Cc2ccccc2)NS(=O)(=O)c2ccc(Br)s2)cc1OC (stereo not given) | inactive: -21.2% | 
29 | CCC(=O)N1CCc2cc(Br)cc(S(=O)(=O)N3CCCC(C(=O)O)C3)c21 (stereo not given) | inactive: 9.55% | 
30 | O=C(Nc1ccc2ccccc2c1)Nc1ccc2snnc2c1 |  | inconclusive: 35.5 µM [inhibitor, single point]
31 | CCC1Nc2ncnc(N3CCCCC3)c2N(Cc2ccc(OC)cc2)C1=O (stereo not given) |  | inconclusive: 0.891 µM [inhibitor, full curve, poor fit]
32 | CCOC(=O)COc1cccc2c(=O)n(CC(N)=O)ccc12 | inactive: -9.33% | 
33 | O=C(CSc1nc(C(F)(F)F)cc(=O)[nH]1)Nc1nccs1 | inactive: 0% | 
34 | CC(C)CCNC(=O)NC(=O)COc1c(F)c(F)cc(F)c1F |  | inconclusive: 6.31 µM [inhibitor, single point]
35 | O=C(O)c1cc2cccc(S(=O)(=O)N3CCCCC3)c2cc1O | inactive: -6.93% | 
